# In PubChem BioAssay AID624330 (Southern Research Specialized Biocontainment Screening …, 2012):
# Out of some 340,000 compounds screened, about 2,100 (0.62%) were called active. Inconclusive results, whose numbers are uncertain, are shown with a selection of clear calls.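 The calls were made as follows: active = first-screen hits whose inhibition reached a set limit at any dose in the follow-up dose series; inconclusive = inhibition above the set first-screen limit but never retested; inactive = the rest.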
# Target: Rac GTPase-activating protein 1 (Homo sapiens) (UniProt Q9H0H5)
# UniProt Q9H0H5, sequence (Q9H0H5 whole entry, looked up): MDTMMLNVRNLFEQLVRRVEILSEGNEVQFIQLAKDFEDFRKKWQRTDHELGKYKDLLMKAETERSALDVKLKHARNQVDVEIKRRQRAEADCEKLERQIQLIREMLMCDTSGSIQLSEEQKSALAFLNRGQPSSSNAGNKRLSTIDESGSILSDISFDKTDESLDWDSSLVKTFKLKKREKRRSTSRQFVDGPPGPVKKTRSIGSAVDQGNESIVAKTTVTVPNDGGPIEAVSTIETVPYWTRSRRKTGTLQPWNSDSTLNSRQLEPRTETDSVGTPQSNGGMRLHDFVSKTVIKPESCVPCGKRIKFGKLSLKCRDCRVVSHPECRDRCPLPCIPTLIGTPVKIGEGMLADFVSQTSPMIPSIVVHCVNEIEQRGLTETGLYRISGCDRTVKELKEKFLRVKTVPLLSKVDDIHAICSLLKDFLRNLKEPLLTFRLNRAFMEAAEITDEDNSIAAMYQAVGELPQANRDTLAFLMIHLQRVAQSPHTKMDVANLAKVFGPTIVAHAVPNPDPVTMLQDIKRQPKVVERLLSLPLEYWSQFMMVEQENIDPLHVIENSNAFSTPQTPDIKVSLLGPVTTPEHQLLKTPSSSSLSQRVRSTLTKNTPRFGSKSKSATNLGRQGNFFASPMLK
# Experiment: blockers of MgcRacGAP-driven Rac1 GTP hydrolysis – biochemical, ADP Hunter fluorescence, primary and confirmatory, confirmation (AID 624330);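 also: fluorescence reports GDP produced by GAP-driven GTP hydrolysis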
# Conditions: MgcRacGAP-stimulated Rac1 GTP hydrolysis, at 30 µM, hits give high values, GST-tagged Rac1 F28L mutant substrate
row,SMILES,inhibition
1,Cc1cccc(NC(=O)CSc2nnnn2-c2cccnc2)c1,inactive: 4.2%
2,O=C(O)c1[nH]c2ccccc2c1C(c1cc(Cl)cc([N+](=O)[O-])c1O)c1c(C(=O)O)[nH]c2ccccc12,inconclusive: 35%
3,COc1ccc(NC(=O)CSc2nc(N)c(C(=O)Nc3ccc(N(C)C)cc3)s2)cc1,inactive: 16.4%
4,O=C(CSc1ncccn1)Nc1ccc(Cl)c(S(=O)(=O)N2CCOCC2)c1,inactive: 7.79%
5,Cc1ccc2c(c1)C1CC(C)(O2)N(c2cccc(C(=O)NC3CCN(Cc4ccccc4)CC3)c2)C(=O)N1 (stereo not given),inactive: 3.74%
6,Nc1cc(S(=O)(=O)c2ccc(O)c(N)c2)ccc1O,inconclusive: 68.8%
7,Cc1ccc(O)c(C=Nc2cc(C)ccc2O)c1,inconclusive: 59.1%
8,CCn1c(SCC(=O)Nc2cc(C)on2)nnc1-c1ccc(OC)cc1,inactive: -3.69%
9,O=C(c1ccc(Cl)cc1)N1CCN(C(=O)C2CCCCC2)CC1,inactive: 7.43%
10,O=C(N/N=C/c1cccc(O)c1)c1ccc(-n2cnnn2)cc1,inactive: 1.77%
11,Cc1cc(Cl)c(OCCCN2CCCCC2)c(Br)c1,inconclusive: 33%
12,COc1ccccc1/C=C/C=N/n1c(-c2cc(C)[nH]n2)n[nH]c1=S,inconclusive: 33.4%
13,O=C(CCCN1C(=O)/C(=C\c2ccco2)SC1=S)Nc1ccc(O)cc1C(=O)O,inconclusive: 51.2%
14,Brc1ccc2nc(-c3cccs3)c(NCC3CCCO3)n2c1 (stereo not given),inconclusive: 34.8%
15,CC(C)c1ccc(OCC(=O)NCc2ccco2)cc1,inactive: 6.29%
16,COC(=O)c1ccc(OCC(O)CN2CCOCC2)cc1 (stereo not given),inactive: -9.81%
17,COc1ccc(CN2CCN(Cc3c[nH]c4ccccc34)CC2)cc1OC,inconclusive: 35%
18,CC(=O)NC(Cc1ccccc1C)C(=O)NC1CCN(c2nnnn2-c2ccccc2)CC1 (stereo not given),inactive: 3.78%
19,CNc1ncnc(Sc2nc(N)nc3nc[nH]c23)c1[N+](=O)[O-],inactive: -4.52%
20,CCOc1cc(/C=C2/NC(=O)N(CC(=O)OC)C2=O)ccc1O,inconclusive: 63.4%
21,CN(CCOc1ccccc1Cl)Cc1ccccc1,inconclusive: 33.4%
22,COc1ccc(OC)c(NC(=O)CSc2nncc3ccc(OC)c(OC)c23)c1,inconclusive: 34.8%
23,Cc1ccc(OCCC(=O)N2CCN(c3ccc(O)cc3)CC2)cc1,inconclusive: 72.3%
24,Cc1ccc(C(=O)NCC(=O)OC(C)C(=O)Nc2ccc(N(C)C)cc2)s1 (stereo not given),inconclusive: 32.9%

row,SMILES,inhibition
1,O=C(C1CC1)N1CCN(c2ccc(O)cc2)CC1,inconclusive: 83.2%
2,CN(C)C=Nc1ccc(Cl)c(Cl)c1,inactive: 2.39%
3,C(=Nc1ccc(N2CCOCC2)cc1)c1c[nH]c2ccccc12,inconclusive: 100%
4,O=C(O)c1cccc(-n2cccc2/C=C/[N+](=O)[O-])c1,inconclusive: 48.8%
5,O=[N+]([O-])c1ccccc1Nc1ccccc1[N+](=O)[O-],inactive: -9.22%
6,O=C(c1cccc(F)c1)N1CCC(N2CCOCC2)CC1,inconclusive: 32.5%
7,O=C(N/N=C/c1sc2ccccc2c1O)c1ccccc1,inconclusive: 90.8%
8,COc1cc2c(ccc3cc(OC)c(OC)c(O)c32)cc1O,inconclusive: 56.8%
9,COc1ccc(OC)c(CNc2ncc(-c3ccc(F)cc3)n2C)c1,inconclusive: 32.3%
10,COc1cc(-c2nc3ccccn3c2/N=C/c2ccccc2)ccc1O,inconclusive: 32.2%
11,COc1ccc2nc(C)cc(Nc3ccc(N4CCN(C)CC4)cc3)c2c1,inconclusive: 34.5%
12,Cc1cc(Nc2ccc(N(C)C)cc2)n2ncnc2n1,inconclusive: 49.5%
13,O=C(O)C1Nc2c(O)cccc2C2C=CCC12 (stereo not given),inconclusive: 64.8%
14,O=S(=O)(NC(=NC1CCCCC1)c1ccccc1)c1ccccc1,inactive: 4.1%
15,C=CC#CC[N+]1(CC#Cc2ccccc2)CCOCC1,inconclusive: 78.7%
16,COc1ccc2c(c1)[nH]c1c(N3CCN(Cc4ccc5c(c4)OCO5)CC3)ncnc12,inconclusive: 33.7%
17,O=C(OCC(=O)N1CCC(Cc2ccccc2)CC1)c1ccc[nH]c1=O,inconclusive: 32.4%
18,CCOc1ccc(NCc2ccccc2OCc2cccc(F)c2)cc1,inconclusive: 50.8%
19,O=C1CC(N2CCN(c3ccc(O)cc3)CC2)C(=O)N1Cc1cccs1 (stereo not given),inconclusive: 59.1%
20,COCCN(C(=O)COC(=O)c1cc2c(s1)CCC2)c1c(N)n(Cc2ccccc2)c(=O)[nH]c1=O,inconclusive: 45.1%
21,O=C(COc1ccc(Nc2ccccc2)cc1)Nc1ccncc1,inconclusive: 34.7%
22,CC(C)(C)c1nnc(N/N=C/c2ccc(Br)cc2)n(N)c1=O,inactive: 9.58%
23,Cc1ccc(CNC(=O)C2CCCC2)cc1,inactive: 6.2%
24,O=C(Nc1nnc(-c2ccncc2)s1)C1CCCO1 (stereo not given),inactive: 2.37%

row,SMILES,inhibition
1,COCCNC(=O)c1cccc(OC2CCN(Cc3ccccc3OCCO)CC2)c1,inactive: 11.3%
2,COc1ccc(C(C(=O)NC2CCCCC2)N(Cc2ccco2)C(=O)c2ccccn2)c(OC)c1 (stereo not given),inactive: 10.7%
3,Cc1nc2ccccc2nc1N/N=C/c1ccc(O)cc1O,inconclusive: 70%
4,COc1cccc(OC)c1C(=O)N1CCN(Cc2c[nH]c3ccccc23)CC1,inconclusive: 32.5%
5,Cc1ccc(Cl)cc1N1CCN(C(=O)Cn2ccc3ccccc3c2=O)CC1,inactive: 4.81%
6,COc1cc(C(=O)Nc2cccc(S(=O)(=O)N3CCCC3)c2)c([N+](=O)[O-])cc1OC,inactive: 4.7%
7,O=C(O)c1ccccc1-c1ccccc1C(=O)Nc1ccccc1,inactive: 8.32%
8,C1=CC2CC1CC2CN1CCN(c2ccccc2)CC1 (stereo not given),inactive: 14.6%
9,Cc1noc(C)c1C(=O)Nc1ccc(N(C)C)cc1,inconclusive: 48.6%
10,Cc1cc(C)cc(NC(=S)N2CCC(NC(=O)c3ccc(F)cc3)CC2)c1,inactive: 4.86%
11,COc1cccc2c1C(=O)c1c(O)c3c(c(O)c1C2=O)C[C@@](O)(C(=O)CO)C[C@@H]3O[C@H]1C[C@H](N)[C@H](O)[C@H](C)O1,inconclusive: 47.6%
12,COc1cc(C2Nn3c(nnc3-c3ccccc3OC)S2)ccc1O (stereo not given),inactive: 3.42%
13,N#CSCC(=O)c1cccc2ccccc12,inconclusive: 35.6%
14,CCOC(=O)c1ccc(NC(=S)Nc2ccc3[nH]c(=O)[nH]c3c2)cc1,inconclusive: 35.7%
15,CN(C)c1ccc(NC(=O)Nc2cccc(Cl)c2)cc1,inconclusive: 52.2%
16,c1ccc(-c2nc(-c3cccnc3)cs2)cc1,inactive: 7.12%
17,COc1ccc(C(=O)O)cc1NC(=S)NC(=O)/C=C/c1ccc(C(C)C)cc1,inactive: 14.7%
18,COc1cc(OC)c(OC)cc1CN1CCSCC1,inconclusive: 33.1%
19,O=C1c2ccccc2NC2(CCCCC2)N1c1ccc(O)cc1,inconclusive: 71.3%
20,Oc1ccc2ccc3[nH]cnc3c2c1,inconclusive: 59.1%
21,O=C(Nc1ccc(O)cc1)C1CCCO1 (stereo not given),inconclusive: 59.9%
22,Cc1nnc(Nc2ccc(O)cc2)[nH]c1=O,inconclusive: 38.1%
23,COc1ccc(N2CCN(C(=O)c3ccccc3NS(=O)(=O)c3ccccc3)CC2)cc1,inconclusive: 35%
24,CCOc1ccc(N)c(SSc2cc(OCC)ccc2N)c1,inconclusive: 47.1%

row,SMILES,inhibition
1,O=C(c1ccccc1)c1ccc2c(c1)OCCOCCOCCOCCO2,inactive: -8.09%
2,CCOC(=O)c1nc(Nc2ccc(C)cc2)c2ccccc2n1,inactive: 4.57%
3,CC(=O)c1c(Nc2cccc(F)c2)oc(C)cc1=O,inactive: 8.68%
4,CCCNC(=O)c1nnsc1S(=O)c1ccc(Cl)cc1 (stereo not given),inconclusive: 75.1%
5,COc1ccc(C=NNc2nc3ccccc3s2)cc1,inactive: 2.73%
6,Cc1ccn2cc(-c3ccc(O)c(O)c3)nc2c1,inconclusive: 96.4%
7,Cc1ccccc1OCCn1c(S(=O)(=O)O)nc2c(N)ncnc21,inactive: 9.98%
8,C=CCc1cc(Cl)ccc1OCCNCCCOC,inconclusive: 32.5%
9,Clc1ccc(/C=N/Nc2ccccn2)cc1,inactive: 11.1%
10,CCCCn1nnnc1SCC(=O)Nc1ccc(N(C)C)cc1,inconclusive: 47.7%
11,CCOc1ccc(C(C(=O)NCC2CCCO2)N(Cc2ccccc2)C(=O)c2snc(C(N)=O)c2N)cc1 (stereo not given),inactive: 6.27%
12,CCOC(=O)Cn1nnnc1CN1CCN(c2ccc(OC)cc2)CC1,inactive: 14.7%
13,CCOC(=O)c1[nH]nc(-c2cc(CC)c(O)cc2O)c1-c1cscn1,inconclusive: 85.3%
14,C/C(CC(=O)Nc1ccc(N(C)C)cc1)=N\NC(=O)c1ccccc1Cl,inconclusive: 32.1%
15,CC1(C)CC(=O)c2c(oc3cc(O)c(O)cc23)C1,inconclusive: 51.9%
16,CCc1cc(OCCN(C)C)ccc1Cl,inconclusive: 32.8%
17,CCN(c1ccccc1)S(=O)(=O)c1cc(NC(=O)CN2CCN(C)CC2)ccc1Cl,inconclusive: 35.8%
18,CCn1cc(CN2CCC(C(=O)Nc3cccc(-c4cccc(OC)c4)c3)CC2)c(C)n1,inactive: 4.15%
19,O=C(N/C(=C/c1ccc(Br)cc1)C(=O)N1CCCCC1)c1ccccc1F,inactive: 8.71%
20,O=C(Nc1ccc2nc(-c3ccco3)c(-c3ccco3)nc2c1)NC1CC1,inconclusive: 80.3%
21,COCCCNC(=O)C1CCCN(S(C)(=O)=O)C1 (stereo not given),inactive: 4.1%
22,COc1ccc(/C=N/NC(=S)Nc2cc(S(=O)(=O)N3CCOCC3)ccc2N2CCOCC2)cc1O,inconclusive: 32.7%
23,COC(=O)c1c(NC(=O)C2CCCCC2)sc2c1CCN(C(C)C)C2,inactive: 8.85%
